Data published in paper PMC3065485.
Results are given in words; binding and its absence hold for the method and conditions named. In cells and extracts the contact can be indirect. Some results given as binding are weak or reduced against the parent protein; the word gives no strength. Tags and fused reporters may be left off the sequences shown.

T1: Hmt1-HA (S. cerevisiae) (UniProt P38074)
T1 sequence: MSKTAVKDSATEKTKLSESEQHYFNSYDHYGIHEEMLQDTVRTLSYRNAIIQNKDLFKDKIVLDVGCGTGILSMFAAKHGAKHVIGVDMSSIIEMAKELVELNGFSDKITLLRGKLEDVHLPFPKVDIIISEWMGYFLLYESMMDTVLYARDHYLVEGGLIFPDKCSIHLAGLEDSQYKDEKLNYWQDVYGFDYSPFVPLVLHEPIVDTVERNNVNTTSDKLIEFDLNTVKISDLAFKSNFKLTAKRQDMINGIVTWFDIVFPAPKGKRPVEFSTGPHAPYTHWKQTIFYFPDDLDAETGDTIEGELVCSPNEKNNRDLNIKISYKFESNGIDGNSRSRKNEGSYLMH


Biological target: T1, Hmt1-HA (S. cerevisiae)
Experiment: co-IP; α-HA immunoprecipitation of the HA-tagged protein (Hmt1-HA or Mlp1-HA) from 1 mg yeast whole-cell extract (10 mM Tris pH 8.0, 150 mM NaCl, 0.1% Nonidet P-40, 10% glycerol, 1 mM DTT), 4°C, Protein A agarose; α-Myc immunoblot for the Ccr4-Not subunit

binding | Binder
binds weakly | Not2-Myc (protein, UniProt P06100 1-191) MEKFGLKALVPLLKLEDKELSSTYDHSMTLGADLSSMLYSLGIPRDSQDHRVLDTFQSPWAETSRSEVEPRFFTPESFTNIPGVLQSTVTPPCFNSIQNDQQRVALFQDETLFFLFYKHPGTVIQELTYLELRKRNWRYHKTLKAWLTKDPMMEPIVSADGLSERGSYVFFDPQRWEKCQRDFLLFYNAIM
binds | Ccr4-Myc (protein, UniProt P31384 1-837) MNDPSLLGYPNVGPQQQQQQQQQQHAGLLGKGTPNALQQQLHMNQLTGIPPPGLMNNSDVHTSSNNNSRQLLDQLANGNANMLNMNMDNNNNNNNNNNNNNNNGGGSGVMMNASTAAVNSIGMVPTVGTPVNINVNASNPLLHPHLDDPSLLNNPIWKLQLHLAAVSAQSLGQPNIYARQNAMKKYLATQQAQQAQQQAQQQAQQQVPGPFGPGPQAAPPALQPTDFQQSHIAEASKSLVDCTKQALMEMADTLTDSKTAKKQQPTGDSTPSGTATNSAVSTPLTPKIELFANGKDEANQALLQHKKLSQYSIDEDDDIENRMVMPKDSKYDDQLWHALDLSNLQIFNISANIFKYDFLTRLYLNGNSLTELPAEIKNLSNLRVLDLSHNRLTSLPAELGSCFQLKYFYFFDNMVTTLPWEFGNLCNLQFLGVEGNPLEKQFLKILTEKSVTGLIFYLRDNRPEIPLPHERRFIEINTDGEPQREYDSLQQSTEHLATDLAKRTFTVLSYNTLCQHYATPKMYRYTPSWALSWDYRRNKLKEQILSYDSDLLCLQEVESKTFEEYWVPLLDKHGYTGIFHAKARAKTMHSKDSKKVDGCCIFFKRDQFKLITKDAMDFSGAWMKHKKFQRTEDYLNRAMNKDNVALFLKLQHIPSGDTIWAVTTHLHWDPKFNDVKTFQVGVLLDHLETLLKEETSHNFRQDIKKFPVLICGDFNSYINSAVYELINTGRVQIHQEGNGRDFGYMSEKNFSHNLALKSSYNCIGELPFTNFTPSFTDVIDYIWFSTHALRVRGLLGEVDPEYVSKFIGFPNDKFPSDHIPLLARFEFMKTNTGSKKV

Second part, the binder before the results:

Binder | binding
Caf1-Myc (protein, UniProt P39008 1-433) MQSMNVQPRVLAVGGEQFFSQRQASEQHQQQNMGPQVYSPKVNRARMFPQGMPVNTINGSVNQEMNNAYLLKQKNEPLLTQQQQQQQQQQQPFNIGTPVSVASLPPGLNVLQQQQQQQQQQQQQQQGVGLNRPLASQLPKHLTNQSMPPIFLPPPNYLFVRDVWKSNLYSEFAVIRQLVSQYNHVSISTEFVGTLARPIGTFRSKVDYHYQTMRANVDFLNPIQLGLSLSDANGNKPDNGPSTWQFNFEFDPKKEIMSTESLELLRKSGINFEKHENLGIDVFEFSQLLMDSGLMMDDSVTWITYHAAYDLGFLINILMNDSMPNNKEDFEWWVHQYMPNFYDLNLVYKIIQEFKNPQLQQSSQQQQQQQYSLTTLADELGLPRFSIFTTTGGQSLLMLLSFCQLSKLSMHKFPNGTDFAKYQGVIYGIDGDQ | binds
Not5-Myc (protein, UniProt Q12514 1-560) MSQRKLQQDIDKLLKKVKEGIEDFDDIYEKFQSTDPSNSSHREKLESDLKREIKKLQKHRDQIKTWLSKEDVKDKQSVLMTNRRLIENGMERFKSVEKLMKTKQFSKEALTNPDIIKDPKELKKRDQVLFIHDCLDELQKQLEQYEAQENEEQTERHEFHIANLENILKKLQNNEMDPEPVEEFQDDIKYYVENNDDPDFIEYDTIYEDMGCEIQPSSSNNEAPKEGNNQTSLSSIRSSKKQERSPKKKAPQRDVSISDRATTPIAPGVESASQSISSTPTPVSTDTPLHTVKDDSIKFDNSTLGTPTTHVSMKKKESENDSEQQLNFPPDRTDEIRKTIQHDVETNAAFQNPLFNDELKYWLDSKRYLMQPLQEMSPKMVSQLESSLLNCPDSLDADSPCLYTKPLSLPHPTSIFFPNEPIRFVYPYDVPLNLTNNENDTDNKFGKDSKAKSKKDDDIYSRTSLARIFMKFDLDTLFFIFYHYQGSYEQFLAARELFKNRNWLFNKVDRCWYYKEIEKLPPGMGKSEEESWRYFDYKKSWLARRCGNDFVYNEEDFEKL | no binding
